Assay [1] has as its system SARS-CoV-2 nsp3 SARS-unique domain core (SUD-core, nsp3 residues 413-676). The assay can be described thus: dissociation rate constant koff (BLI); higher = faster dissociation. The following applies: 100 µM; 25 °C.
The test system is the same in assay [2]. The assay can be described thus: apparent dissociation constant Kd (single-concentration BLI fit); higher = weaker binding. The note with it: 100 µM; 25 °C.

SMILES strings stand for the structures. This is one part of the list. Single values are uncertain, as repeats are few or missing.

Take `C[C@H](Nc1ncnc2nc[nH]c12)c1nc2ccc(F)cc2c(=O)n1-c1ccccc1`: in assay [1], the “dissociation rate constant koff” value turned out to be 0.808 s⁻¹. The “apparent dissociation constant Kd” value in assay [2] was 1650 µM.
`Nc1nc(N[C@H]2C[C@@H]3CC[C@H]2C3)sc1C(=O)c1ccccc1[N+](=O)[O-]`: in assay [1], the “dissociation rate constant koff” value amounted to 0.0493 s⁻¹. The “apparent dissociation constant Kd” value in assay [2] is 6.51 µM.
Regarding `COC(=O)N[C@@H](C)CNc1nccc(-c2cn(C(C)C)nc2-c2cc(Cl)cc(NS(C)(=O)=O)c2F)n1`, in assay [1], the “dissociation rate constant koff” value is 0.713 s⁻¹. The “apparent dissociation constant Kd” value in assay [2] worked out at 1810 µM.
The like results for `CN(C)C(=O)c1cc2cnc(Nc3ccc(N4CCNCC4)cn3)nc2n1C1CCCC1` were, in that order, 0.0475 s⁻¹ and 20.2 µM.
Turning to `N#C/C(=C\c1ccc(O)c(O)c1)C(=O)N1CCc2ccccc21`, the “dissociation rate constant koff” value in assay [1] came to 0.186 s⁻¹. Besides, the “apparent dissociation constant Kd” value in assay [2] stood at 12.7 µM.
The corresponding values for `O=C(Cc1ccc(-c2ccc(OCCN3CCOCC3)cc2)cn1)NCc1ccccc1` are 0.0677 s⁻¹ and 34.1 µM.
The like results for `Cc1ncc(NC(=O)c2cccc(C(F)(F)F)c2)cc1-c1cnc(OC2CCOCC2)c(N2CCOCC2)c1` were, in that order, 0.125 s⁻¹ and 80.6 µM.
As for `C=CC(=O)N1CCC(C2CCNc3c(C(N)=O)c(-c4ccc(Oc5ccccc5)cc4)nn32)CC1` (stereo unspecified), in assay [1], the “dissociation rate constant koff” value was found to be 1.21 s⁻¹. The “apparent dissociation constant Kd” value in assay [2] worked out at 1470 µM.
The like results for `Cn1cc(-c2cnc3cnn(S(=O)(=O)c4cnc5ccc(-c6cnn(C)c6)cn45)c3c2)cn1` were, in that order, 0.119 s⁻¹ and 43700 µM.
As for `C[C@@H](Oc1cc(-c2cnn(C3CCNCC3)c2)cnc1N)c1c(Cl)ccc(F)c1Cl`, the “dissociation rate constant koff” value in assay [1] came out at 0.518 s⁻¹. Moreover, the “apparent dissociation constant Kd” value in assay [2] amounted to 2130 µM.
The like results for `OC[C@H]1O[C@@H](n2cnc3c2ncn2ccnc32)C[C@@H]1O` were, in that order, 0.0802 s⁻¹ and 12100 µM.
The like results for `CNC(=O)c1cc(Oc2ccc3nc(N[C@@H]4CCCC[C@H]4O)sc3c2)ccn1` were, in that order, 0.175 s⁻¹ and 140 µM.
On to `CCNC(=O)C#Cc1ccc2c(C(=Nc3ccc(CN(C)C)cc3)c3ccccc3)c(O)[nH]c2c1`, for which the “dissociation rate constant koff” value in assay [1] was determined as 0.464 s⁻¹. The “apparent dissociation constant Kd” value in assay [2] is 2590 µM.

(Values after the supplement of paper PMC10326071.)
